Test results taken from paper PMC4336329 (PLoS ONE, 2015).
The campaign covered roughly 310,000 compounds. About 14,000 (4.5%) showed an effect of 50% or more. Effects have a minus sign here. This is one part of the list.

Molecular target: human ether-à-go-go-related gene (hERG) potassium channel (human, UniProt Q12809)
Experiment: primary screen, population patch clamp on CHO cells stably expressing hERG
Method: Briefly, Chinese hamster ovary (CHO) cells stably expressing the hERG channel were dislodged from tissue culture flasks and dispensed into PPC plates. […] During the recording, background leak currents were estimated by a 100 ms step to -80 mV from an initial holding potential of -70 mV and subtracted from the subsequent current measurement. The campaign was conducted in two phases using slight differences in recording protocol. In the first phase, the initial voltage pulse used a 100 ms step to -30 mV from a holding potential of -70 mV, a 2 s conditioning step to +25 mV, and a 2 s test step to -30 mV. During the second phase of the screen, the potential during the conditioning step was raised to +45 mV. In both phases of the campaign, a secondary voltage pulse was applied using the same parameters as the second phase initial pulse. The initial and secondary pulses were applied in the absence of compound, and upon application of 1 μM and 10 μM test concentrations. […]
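Note: peak tail current of the secondary pulse compared with the same well before compound.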

Sequence of human ether-à-go-go-related gene (hERG) potassium channel (Q12809 whole entry, looked up): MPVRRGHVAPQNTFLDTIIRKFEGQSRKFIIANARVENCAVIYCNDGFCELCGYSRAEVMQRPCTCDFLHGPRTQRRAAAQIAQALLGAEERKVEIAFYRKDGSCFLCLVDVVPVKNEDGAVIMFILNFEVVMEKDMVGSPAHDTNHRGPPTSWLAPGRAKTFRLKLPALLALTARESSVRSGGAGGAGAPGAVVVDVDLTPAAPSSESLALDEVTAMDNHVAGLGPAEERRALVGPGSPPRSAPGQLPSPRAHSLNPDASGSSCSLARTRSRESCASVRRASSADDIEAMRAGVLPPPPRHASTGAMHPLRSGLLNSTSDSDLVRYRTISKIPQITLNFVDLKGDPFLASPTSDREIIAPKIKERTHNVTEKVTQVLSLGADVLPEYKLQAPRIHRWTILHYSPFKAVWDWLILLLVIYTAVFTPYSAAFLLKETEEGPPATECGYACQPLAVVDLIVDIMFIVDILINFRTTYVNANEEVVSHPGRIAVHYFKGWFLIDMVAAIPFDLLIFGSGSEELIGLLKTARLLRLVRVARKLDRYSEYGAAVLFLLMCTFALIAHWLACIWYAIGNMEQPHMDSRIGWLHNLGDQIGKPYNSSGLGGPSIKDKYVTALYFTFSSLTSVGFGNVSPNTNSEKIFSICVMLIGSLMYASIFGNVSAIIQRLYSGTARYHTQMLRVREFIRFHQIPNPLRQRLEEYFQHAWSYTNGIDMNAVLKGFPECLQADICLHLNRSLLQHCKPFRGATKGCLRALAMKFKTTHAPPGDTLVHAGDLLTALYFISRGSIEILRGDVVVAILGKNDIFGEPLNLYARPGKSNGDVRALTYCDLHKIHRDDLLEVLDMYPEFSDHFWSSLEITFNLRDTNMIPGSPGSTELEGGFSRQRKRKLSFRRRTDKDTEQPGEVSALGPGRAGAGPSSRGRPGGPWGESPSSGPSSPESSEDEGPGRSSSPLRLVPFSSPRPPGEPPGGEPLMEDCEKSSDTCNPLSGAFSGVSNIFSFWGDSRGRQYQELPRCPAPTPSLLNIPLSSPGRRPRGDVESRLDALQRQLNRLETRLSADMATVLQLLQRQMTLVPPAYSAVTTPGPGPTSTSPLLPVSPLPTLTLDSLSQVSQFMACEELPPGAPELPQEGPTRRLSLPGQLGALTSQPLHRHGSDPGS

Structure (SMILES)	hERG current change (%, negative = inhibition) at 10uM
CC1CCC(NC(=O)CCn2ccc3cc(S(=O)(=O)N4CCCC4)ccc32)CC1 (stereo not drawn)	-30.9%
COC(=O)C(Cc1ccccc1)NC(=O)CC(C)CC(=O)Nc1ccc(OC)cc1OC (stereo not drawn)	-4.69%
CC(Sc1nc(NC(C)(C)C)nc(N(C)C)n1)C(=O)Nc1ccccc1 (stereo not drawn)	10.9%
COc1ccc(NC(C)=O)cc1S(=O)(=O)N(C)Cc1c(C)nn(-c2ccccc2)c1C	-13%
Cc1ccc(C(=O)Nc2nc3ccccc3[nH]2)cc1	-5.03%
O=C(NC1CCN(S(=O)(=O)c2ccc(F)cc2)CC1)c1cccc(F)c1	6.24%
COc1ccc(NC(=S)NCC(c2cccnc2)N2CCOCC2)cc1 (stereo not drawn)	-11.3%
CCN(CC)C(=O)n1cnc(-c2ccccc2)c1-c1ccccc1	2.37%
CCC1=C(OC(=O)N(CC)CC)N2C(=O)OC(=NCC(=O)OC)[C@]2(C)[C@H]2C1=CC[C@H]1C(=O)N(C)C(=O)[C@H]12	-11.1%
NC(=O)CC(NC(=O)Cc1ccc(Cl)cc1)c1ccc(NCCOc2ccccc2)c([N+](=O)[O-])c1 (stereo not drawn)	1.19%
CCn1c(=O)n(CC(=O)NCC2CCCO2)c(=O)c2c3c(sc21)COC(C)(C)C3 (stereo not drawn)	12.8%
CCc1ccc(OCCOCC(O)CNC2CCCC2)cc1.Cl (stereo not drawn)	0.432%
Cc1ccc(C(O)Cn2cc([N+](=O)[O-])nc2C)cc1 (stereo not drawn)	2.9%
O=C(Nc1ccccc1C(=O)N1CCOCC1)c1ccc([N+](=O)[O-])cc1	15%
CC(C)NC(=O)CN1CCN(C(=O)CCl)CC1.Cl	16.2%
COc1cc2c(c(OC)c1OC)-c1ccc(O)c(=O)cc1[C@@H](N)CC2	-11.8%
O=C(O)C(=O)O.O=S(=O)(c1ccc(F)cc1)N1CCC(N2CCCCCC2)CC1	-26.3%
CCOc1ccc(Br)cc1CSC(=N)N.Cl	-40.3%
CCOc1cc(C)ccc1OCc1nnc(SCC(=O)c2cccc([N+](=O)[O-])c2)n1C	-26.4%
COCCNC(=O)c1onc(CSc2ccc(F)cc2)c1C(=O)NCCOC	-4.82%
Cc1cccc(C)c1NC(=O)CN(C)C(=O)c1cc(S(=O)(=O)N2CCOCC2)ccc1N1CCCC1	-3.99%
O=C(N/C(=C/c1ccc(Cl)cc1)c1nc2ccccc2[nH]1)c1ccco1	9.34%

Structure (SMILES)	hERG current change (%, negative = inhibition) at 10uM
CN(C(=O)COC(=O)c1ccc(Cl)cc1N)C1CCS(=O)(=O)C1 (stereo not drawn)	-16.2%
Cc1ccc(S(=O)(=O)/N=C(/c2ccc(F)cc2)N(C)C)cc1	16.1%
CC(C)(C)CC(=O)Nc1nnc(C(F)(F)F)s1	7.13%
O=C(Nc1ccc(Cl)cc1)c1ccc(-n2cccn2)c([N+](=O)[O-])c1	4.78%
O=C(CN1C(=O)COc2ccc(S(=O)(=O)N3CCCC3)cc21)Nc1cccc(F)c1	14.9%
O=C(COC(=O)/C=C/c1ccco1)NCCc1ccccc1	-0.27%
Cc1ccc2oc(C(=O)Nc3ccc(S(=O)(=O)Nc4ncccn4)cc3)c(C)c2c1	14.9%
CC(=O)c1cc(CN2CCC(N3CCC(C(=O)N4CCCC4)CC3)CC2)cs1	-2.23%
CCCn1cc(S(=O)(=O)c2ccc(Cl)cc2)c(=O)c2cc(OC)ccc21	4.38%
CCOc1ccc2[nH]c3c(NCCCOC)ncnc3c2c1	-10%
COc1ccc(S(=O)(=O)N2CCCCCC2)cc1C(=O)NCc1cccs1	-68.3%
CCCCN1C(=O)NC(c2cccc([N+](=O)[O-])c2)C(C(=O)OCC)=C1C (stereo not drawn)	-27.7%
CCN(CC1CCCN(CCc2cccc(OC)c2)C1)C(=O)c1ccoc1C (stereo not drawn)	-62.8%
COc1ccc(NC(=O)C2CCCN(S(=O)(=O)c3ccc4c(c3)oc(=O)n4C)C2)c(OC)c1 (stereo not drawn)	-17%
NC(=O)CSc1ccc(S(=O)(=O)N2CCOCC2)cn1	10.2%
CCCN(C(=O)c1ccc2c(SCC(=O)O)c3c(nc2c1)CCC3)c1cccc(C)c1	17.8%
O=C1c2ccccc2C(=O)C1c1ccc(O)cc1	-6.49%
Cc1cc(C)nc(NNS(=O)(=O)c2ccc(F)c(Cl)c2)n1	0.38%
Nc1ccccc1C(=O)OCCc1ccccc1	14.2%
CC1(C)Cc2cccc(OCC(=O)N3CCN(c4cccc(C(F)(F)F)c4)CC3)c2O1	1.57%
CC(=O)NC(C)C(=O)OCC(=O)c1ccc(Cl)s1 (stereo not drawn)	5.1%
COC(=O)c1c(NC(=O)CSc2ncnc3ccccc23)sc(C)c1C	2.81%

Structure (SMILES)	hERG current change (%, negative = inhibition) at 10uM
O=C(O)CC(CN1C(=O)c2ccccc2C1=O)c1ccccc1 (stereo not drawn)	7.09%
COc1ccccc1N1CCN(S(=O)(=O)c2ccc(Cl)cc2)CC1	6.61%
COc1ccc(NC(=O)c2cccnc2NCCc2ccccc2)cc1	8.11%
O=C(c1ccccc1)N1CCN(C(=O)c2ccccc2)CC1	1.49%
COc1ccc(NC(c2ccccc2F)P(=O)(Oc2ccccc2)Oc2ccccc2)cc1 (stereo not drawn)	7.48%
COc1ccc(C2CC(=O)Oc3c(C(CCN4CCCCC4)c4ccc(N(C)C)cc4)c(OC)cc(OC)c32)cc1 (stereo not drawn)	-16%
COC(=O)Cc1c(C)nc2nc(-c3ccc(C)cc3)[nH]n2c1=O	12.8%
CC(=O)c1sc(N2CCOCC2)nc1-c1ccccc1	-6.27%
CC(=O)N(OCc1ccc(OC(C)C)c(Cl)c1)C(C)=O	18.4%
NC(=O)COc1ccc(NC(=O)c2ccccc2-c2ccccc2)cc1	-9.89%
Cc1ccc(Nc2nc3ccc(Cl)cc3n3cnnc23)cc1F	14.3%
CN(C)CCCNC(=O)c1cc(Br)ccc1O	7.01%
CC(C)OC(=O)CSc1nnc(COc2ccc([N+](=O)[O-])cc2)n1C	-69.9%
Cc1[nH]c(=S)c(C#N)c(C)c1CCC#N	17.6%
CON(c1nc(Cl)nc(N(C)C)n1)S(=O)(=O)c1ccc(C)cc1	6.43%
O=C(CSc1nnc(-c2ccccn2)n1Cc1ccccc1)N1CCOCC1	-3.4%
CC(O)c1ccc2c(c1)OCCOCCN(C)CCOCCO2 (stereo not drawn)	-1.64%
COC(=O)c1sccc1-n1cc(C#N)c(=O)n(C)c1=O	17.9%
COc1ccc(CCNC(=O)C2CCN(S(=O)(=O)c3cccc4nonc34)CC2)cc1OC	-3.78%
COc1ccc(S(=O)(=O)N2CCN(C(=O)C3CCCO3)CC2)cc1 (stereo not drawn)	1.57%
CC(=O)N(Cc1ccccc1C)c1cccc(C)c1C	-2.94%
CN(CC(=O)Nc1ccc(Cl)cc1)CC(=O)Nc1ccc(F)c(F)c1F	-25.4%

Structure (SMILES)	hERG current change (%, negative = inhibition) at 10uM
Cc1cc(Cl)cc(Br)c1OCCCCn1cncn1	-23.5%
COc1ccc2ccccc2c1/C=N/NC(=O)CC1(C)OCCCO1	3.31%
COCCn1c(SCc2nc3ccccc3c(=O)[nH]2)nnc1-c1ccncc1	-4.64%
Cc1ccc(C)c(NS(=O)(=O)c2ccc(OCC(=O)N3CCOCC3)cc2)c1	-7.34%
Cc1cc(NC(=O)CN2CCN(C/C=C/c3ccccc3)CC2)c([N+](=O)[O-])cc1C	-12%
Cc1cccc(C2=N/C(=C\c3cccs3)C(=O)O2)c1	28.6%
O=C(Nc1ccc(Cl)c(Cl)c1)C1CC(=O)N(c2ccc(Br)cc2)C1 (stereo not drawn)	11.1%
O=C(CSc1nnc(-c2cnccn2)n1Cc1ccco1)c1ccc(Cl)c(Cl)c1	-47%
CC(=O)c1cnc2nc(SCc3cccc(C)c3)nn2c1C	-19.5%
CC(C)(C)C1CCC(=O)N(CCSc2ccccc2)CC1 (stereo not drawn)	-38.9%
Cc1ccc(S(=O)(=O)N(C)c2ccc(C(=O)NCC(c3ccco3)N(C)C)cc2)cc1 (stereo not drawn)	-8.64%
CCn1cc(CN2CCCC(C(=O)Nc3cccc(-c4cc5ccccc5[nH]4)c3)C2)c(C)n1 (stereo not drawn)	-14.4%
CCCC(CCC)C(=O)Nc1c[nH]c(=O)[nH]c1=O	-2.66%
N/C(Cc1ccc([N+](=O)[O-])cc1)=N\OC(=O)COc1cccc2ccccc12	-13.7%
CCN1CCN(c2ccc(N3CCN(S(=O)(=O)c4ccc(C)c([N+](=O)[O-])c4)CC3)nn2)CC1	-56.6%
CCOC(=O)c1sc(=S)n(-c2cccc(OC)c2)c1N	-7.09%
COc1ccc(-n2c(COc3cccc4ccccc34)nnc2SCC#N)cc1	-5.79%
COc1ccc(CN(C(=O)CSc2nnc(-c3ccc(F)cc3)o2)c2ccc(F)cc2)cc1	-9.46%
CCOc1ccc(-c2cc(CCCC(=O)NCCCOC)no2)cc1	-15.5%
Cc1ccccc1NC(=O)CCN1CCCCCC1	11.6%
Cc1ccc(S(=O)(=O)Nc2ccc(S(=O)(=O)Nc3ncccn3)cc2)cc1	-3.43%
